The full ranking holds about 33,000 sequences; the median of “E-score (-0.5 to 0.5)” is about -0.053, and the highest 2% start at about 0.37. Some of the results follow.
Each sequence was assayed against Hap1 (UniProt P0CE41) (assay: PBM E-score (8-mer binding enrichment) (E-score (-0.5 to 0.5)); higher = stronger / more preferred TF binding; most listed sequences are background and not binding sites). Settings: protein concentration: 200 nM; construct: GST-DNA-binding domain.
How it was run: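 PURExpress in vitro transcription/translation supplied GST-tagged yeast transcription factors, either full-length or DNA-binding domain. Applied at about 100-200 nM to universal all-10-mer Agilent arrays double-stranded by primer extension, the bound protein was detected with fluorescent anti-GST. E-scores, modified Wilcoxon-Mann-Whitney statistics, were given by the Universal PBM Analysis Suite to ungapped eight-base words pooled with their reverse complements after masliner normalisation.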

Chain of UniProt P0CE41 (P0CE41 whole entry, the tested form may be a part): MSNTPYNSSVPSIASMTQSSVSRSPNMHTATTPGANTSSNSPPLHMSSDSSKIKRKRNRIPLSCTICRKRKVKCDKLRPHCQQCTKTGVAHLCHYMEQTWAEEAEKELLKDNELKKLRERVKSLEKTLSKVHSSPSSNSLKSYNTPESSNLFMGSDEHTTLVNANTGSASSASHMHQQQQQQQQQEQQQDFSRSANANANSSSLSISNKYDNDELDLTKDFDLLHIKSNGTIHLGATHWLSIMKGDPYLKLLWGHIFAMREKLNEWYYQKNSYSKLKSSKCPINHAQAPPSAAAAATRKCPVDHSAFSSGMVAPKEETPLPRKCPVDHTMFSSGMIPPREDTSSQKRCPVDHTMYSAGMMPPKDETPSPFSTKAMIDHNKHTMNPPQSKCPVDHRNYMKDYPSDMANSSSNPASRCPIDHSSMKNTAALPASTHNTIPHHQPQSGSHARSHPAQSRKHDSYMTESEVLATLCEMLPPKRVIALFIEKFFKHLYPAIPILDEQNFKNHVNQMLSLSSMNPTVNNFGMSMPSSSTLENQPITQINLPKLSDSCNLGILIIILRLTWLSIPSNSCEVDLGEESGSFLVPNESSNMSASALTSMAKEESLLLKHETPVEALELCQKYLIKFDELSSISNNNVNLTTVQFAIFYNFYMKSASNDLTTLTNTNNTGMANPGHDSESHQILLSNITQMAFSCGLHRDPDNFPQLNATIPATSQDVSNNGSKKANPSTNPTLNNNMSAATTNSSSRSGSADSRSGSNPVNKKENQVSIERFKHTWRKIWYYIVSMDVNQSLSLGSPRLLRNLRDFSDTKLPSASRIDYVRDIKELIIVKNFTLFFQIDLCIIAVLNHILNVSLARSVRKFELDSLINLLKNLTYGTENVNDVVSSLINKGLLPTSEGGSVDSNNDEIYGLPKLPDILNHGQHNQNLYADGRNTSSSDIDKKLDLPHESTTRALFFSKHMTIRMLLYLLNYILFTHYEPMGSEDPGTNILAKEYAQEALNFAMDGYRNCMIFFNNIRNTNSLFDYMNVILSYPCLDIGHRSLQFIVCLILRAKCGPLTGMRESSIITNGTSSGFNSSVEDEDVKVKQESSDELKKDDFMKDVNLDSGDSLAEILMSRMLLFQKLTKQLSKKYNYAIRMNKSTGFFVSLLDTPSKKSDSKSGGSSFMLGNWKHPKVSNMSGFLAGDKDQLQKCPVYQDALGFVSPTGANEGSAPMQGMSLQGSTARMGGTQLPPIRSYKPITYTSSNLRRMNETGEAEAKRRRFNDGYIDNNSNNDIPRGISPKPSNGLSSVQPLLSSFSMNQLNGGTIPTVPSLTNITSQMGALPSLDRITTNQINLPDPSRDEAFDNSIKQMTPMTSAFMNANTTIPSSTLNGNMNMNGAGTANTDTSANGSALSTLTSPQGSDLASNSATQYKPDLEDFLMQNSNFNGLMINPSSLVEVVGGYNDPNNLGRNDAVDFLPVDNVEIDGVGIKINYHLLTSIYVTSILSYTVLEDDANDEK

| Sequence | PBM E-score |
| --- | --- |
| AATAAGCT | -0.00764 |
| ACCACCAT | 0.0801 |
| GATTTAAA | -0.0644 |
| CGTCTTGC | 0.00364 |
| AGGGCTTC | -0.117 |
| ATCAAGAT | -0.0874 |
| GGCCGATA | 0.457 |
| ACCTATCG | 0.278 |
| ATGGCTTA | -0.0789 |
| TTCACGAA | -0.109 |
| ACAAGGGG | -0.094 |
| TACTTTAA | -0.111 |
| CAGGCCCC | -0.129 |
| CATTCCGG | 0.322 |
| CCAATATA | -0.15 |
| GCCATTAC | 0.0703 |
| GCTATAGC | 0.0502 |
| AAGCTAGG | -0.0218 |
| CAGCAATA | -0.104 |
| CCCCAGTC | -0.0527 |
| CCCATGCA | -0.152 |
| TCTATAAA | -0.103 |
| CATCTTAC | -0.254 |
| ACAACTAT | -0.0364 |
| AGCATAGG | -0.188 |

| Sequence | PBM E-score |
| --- | --- |
| ATAGTCGA | -0.0533 |
| CGGATATC | 0.39 |
| ACACTAGA | -0.095 |
| AGGGGATG | -0.00603 |
| AGATGCCG | 0.175 |
| AAGTAGGC | 0.00443 |
| ACGATGGA | -0.0959 |
| CGGAACCA | 0.311 |
| CGGCCCAA | 0.251 |
| ATTGATGA | -0.0401 |
| GACTAGCC | -0.0957 |
| ACCGCGAG | 0.0447 |
| TTAGTAAA | -0.0612 |
| ACATTTTG | -0.152 |
| CCGAATAA | 0.29 |
| CCACAAAG | -0.00127 |
| ACCCACAT | -0.0251 |
| GTACGCTA | -0.153 |
| ACAGAAGA | -0.0507 |
| ACGGTGTG | -0.00778 |
| CAACAACC | 0.00665 |
| AAGATCAT | -0.154 |
| CTAAGTTA | -0.182 |
| CCTCTGAC | -0.106 |
| CGAGCCAC | -0.109 |

| Sequence | PBM E-score |
| --- | --- |
| TCCTCAGA | -0.12 |
| CGCGCAAG | 0.0599 |
| AGCCGAGA | 0.267 |
| GGCACCCC | -0.0546 |
| CTGTGACA | -0.312 |
| CCGCTGCA | -0.0239 |
| ATCAGGAA | -0.222 |
| ATAGACGC | 0.106 |
| CTGCGAAG | -0.262 |
| AACAGAGC | -0.144 |
| AACATCTG | -0.281 |
| AGAATCCG | 0.269 |
| AATCTTCT | -0.0433 |
| TCGGGAGA | 0.117 |
| CTGTCTTA | -0.0346 |
| AGACACGG | 0.0548 |
| CGACTAGC | 0.0247 |
| ATGCCCCA | -0.0732 |
| CAAGGAGG | -0.169 |
| CTACCCCC | 0.192 |
| GAGCCGCA | -0.0121 |
| CCGACCGA | 0.422 |
| GGACTATA | 0.172 |
| AGGTACCG | 0.116 |
| CGAATTGC | 0.0559 |

| Sequence | PBM E-score |
| --- | --- |
| TCGCGGAA | 0.222 |
| GAATCTGC | 0.182 |
| GGACTGCC | -0.0273 |
| ATTAGCAC | -0.0482 |
| AAATCCAT | 0.132 |
| AGCTACAG | -0.123 |
| ATGTGAAT | -0.0535 |
| AGTTTACA | -0.0535 |
| AAAGAAGC | -0.0509 |
| CCTCCTTC | -0.0415 |
| CCAAGCGC | 0.105 |
| ACAGCGCA | -0.171 |
| ATCCGGCG | 0.355 |
| ATACGGAT | 0.204 |
| AAGTAGCC | 0.115 |
| GACGTGGA | -0.126 |
| AGAGAGAC | -0.258 |
| GCGAATTA | 0.0259 |
| GAGCTTGC | -0.171 |
| ACAATTGG | -0.212 |
| AACATTTC | -0.235 |
| CCGACTCC | 0.27 |
| CTTGCGTC | -0.14 |
| TAAAAGGA | -0.0643 |
| GGTAATCA | 0.022 |

| Sequence | PBM E-score |
| --- | --- |
| TCGTCAGA | -0.113 |
| AGGATAGG | -0.126 |
| GAGTTATA | -0.0538 |
| GGCGAGGA | 0.0118 |
| CCCTTTTA | -0.177 |
| GCCATACC | 0.0518 |
| CGGACTAG | 0.305 |
| CGTTAGAG | 0.105 |
| ATGTGGTA | -0.0905 |
| GCGAGAGA | -0.108 |
| ACTGATCT | -0.125 |
| ACCTCCAC | -0.00483 |
| GAGGACAC | 0.0755 |
| GCTATCCA | -0.0628 |
| ACATGCGA | -0.118 |
| GCGGCAAC | 0.00981 |
| ATTCTTAA | -0.00994 |
| CCGGGAAC | 0.322 |
| CAGCACTC | -0.158 |
| ATCGGGTC | 0.343 |
| GATTTTGC | -0.0335 |
| GCGACACC | 0.0843 |
| ACCCCTTC | -0.236 |
| CATCGCCG | 0.293 |
| CCACCGGC | 0.233 |

| Sequence | PBM E-score |
| --- | --- |
| CGTCTTTA | 0.0516 |
| CCCTTGCC | -0.0918 |
| CTCGTAAC | -0.0461 |
| GTAAGAAC | 0.03 |
| AATTTCAA | -0.137 |
| ACAAACCT | -0.181 |
| CCATCAGG | -0.154 |
| ATATAAGG | 0.141 |
| TATCACGA | -0.152 |
| CGGGCACG | 0.296 |
| AACCTTCT | 0.0295 |
| GTAATATA | -0.0119 |
| ACGTCGCA | -0.191 |
| ACTGGGCA | -0.125 |
| GTATGCTA | 0.0377 |
| CCGCTAGG | 0.185 |
| CACCACAA | -0.117 |
| GTGTCCCA | 0.0086 |
| CAGCGAAC | -0.179 |
| GGAGGCAA | 0.0882 |
| AGGTCGAG | -0.325 |
| GCGCAATA | 0.0628 |
| ATCAGGGG | -0.217 |
| AGAAGGGC | -0.121 |
| GGCACATA | -0.121 |

| Sequence | PBM E-score |
| --- | --- |
| CGTTGCCA | 0.0478 |
| GGGCTGAA | -0.0489 |
| ATCGATTC | -0.0601 |
| AGAGATAA | 0.00783 |
| CACACACG | -0.0462 |
| ATCGGCTG | 0.3 |
| CGTGGACC | 0.129 |
| AGTTTTTC | 0.0886 |
| AACGCAGA | -0.0566 |
| GCAACCAA | -0.187 |
| CTTCCCAC | -0.149 |
| GGAACACC | 0.165 |
| AGAACTAA | 0.076 |
| ATCGACGG | 0.163 |
| GACCCTCC | 0.0636 |
| TCAACGCA | -0.178 |
| GACGGTGA | -0.0624 |
| CGTAGAGC | -0.136 |
| CCATTCGA | -0.0986 |
| CATAATTA | -0.0485 |
| CTCCGAGC | 0.386 |
| AAGATGTA | -0.226 |
